From article PMC4336329 (PLoS ONE, 2015)
The whole screen tested about 310,000 compounds, of which about 14,000 (4.5%) showed an effect of 50% or more. Effects have a minus sign here. Some of the results follow.

The molecules below were run against human ether-à-go-go-related gene (hERG) potassium channel (human, UniProt Q12809) (assay: primary screen, population patch clamp on CHO cells stably expressing hERG).
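Also: peak tail current of the secondary pulse compared with the same well before compound.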

Chain of human ether-à-go-go-related gene (hERG) potassium channel (Q12809 whole entry, looked up): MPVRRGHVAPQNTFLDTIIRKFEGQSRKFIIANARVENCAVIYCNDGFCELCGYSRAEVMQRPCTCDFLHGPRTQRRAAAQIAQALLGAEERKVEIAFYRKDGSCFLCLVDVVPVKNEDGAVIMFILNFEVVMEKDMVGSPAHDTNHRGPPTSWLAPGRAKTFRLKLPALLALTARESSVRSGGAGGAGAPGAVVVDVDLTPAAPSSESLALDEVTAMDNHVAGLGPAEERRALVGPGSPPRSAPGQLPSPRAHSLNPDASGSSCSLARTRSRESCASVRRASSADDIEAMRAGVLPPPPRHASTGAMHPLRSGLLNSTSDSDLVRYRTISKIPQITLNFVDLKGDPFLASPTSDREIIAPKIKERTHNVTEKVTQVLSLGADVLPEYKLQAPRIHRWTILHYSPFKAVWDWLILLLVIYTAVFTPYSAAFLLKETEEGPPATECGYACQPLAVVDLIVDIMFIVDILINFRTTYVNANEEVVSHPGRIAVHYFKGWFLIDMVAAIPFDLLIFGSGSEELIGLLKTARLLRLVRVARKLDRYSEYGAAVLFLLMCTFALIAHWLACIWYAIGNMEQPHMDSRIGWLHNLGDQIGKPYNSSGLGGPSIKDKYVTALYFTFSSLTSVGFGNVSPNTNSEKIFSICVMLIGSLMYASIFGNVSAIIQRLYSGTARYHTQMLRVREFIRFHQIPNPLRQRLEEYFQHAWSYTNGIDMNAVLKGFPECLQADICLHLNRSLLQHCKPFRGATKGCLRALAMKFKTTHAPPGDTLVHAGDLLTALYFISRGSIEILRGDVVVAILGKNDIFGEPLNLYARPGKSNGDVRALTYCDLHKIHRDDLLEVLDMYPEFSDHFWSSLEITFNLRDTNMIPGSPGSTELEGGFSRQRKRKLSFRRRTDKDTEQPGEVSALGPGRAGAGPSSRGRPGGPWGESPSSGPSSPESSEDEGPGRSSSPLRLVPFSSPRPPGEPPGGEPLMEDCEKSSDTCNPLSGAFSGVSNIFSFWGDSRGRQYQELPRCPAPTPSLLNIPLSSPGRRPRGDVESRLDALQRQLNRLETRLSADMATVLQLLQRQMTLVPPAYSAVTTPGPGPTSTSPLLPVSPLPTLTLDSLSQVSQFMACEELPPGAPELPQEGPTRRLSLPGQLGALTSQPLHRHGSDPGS

Compound	hERG current change (%, negative = inhibition) at 10uM [%]
COc1cccc(C(=O)N2CCN(C3CCN(Cc4ccccc4)CC3)CC2)c1OC.O=C(O)C(=O)O	-19.1
Cc1nc2oc3c(NCC4CCCO4)ncnc3c2c2c1COC(C)(C)C2 (stereo not drawn)	-16.6
CC1N(C(=O)N(C)C)CCN1S(=O)(=O)c1ccccc1 (stereo not drawn)	10.2
Cc1cccc(NC(=O)C2CC(=O)OC23CCCC3)c1 (stereo not drawn)	14
COc1ccc(N2CCN(C(=O)c3ccccc3Br)CC2)c([N+](=O)[O-])c1	-65.5
CC(C)CC(=O)NC(=S)Nc1ccc(CN2CCOCC2)cc1	-3.57
Cc1ccc2nc(NC(=O)CC3Oc4ccccc4NC3=O)sc2c1 (stereo not drawn)	10.5
C=CCn1c(SCc2nc3ccccc3c(=O)[nH]2)nc2ccccc2c1=O	-4.3
COc1ccc(CNC/C=C/c2ccccc2)cc1.Cl	-42.2
O=C(Nc1ccc(Cl)cc1Cl)c1ccc2c(=O)n3c(nc2c1)CCC3	-39.8
O=c1ccc(/C=C/c2ccccc2)nn1Cc1ccc(F)cc1	11.4
N#Cc1cnn(-c2nc(SCc3ccccc3)nc3sc4c(c23)CCCC4)c1N	-0.501
COc1ccc(C(=O)NNC2=C(C(=O)C(F)(F)F)CCC2)cc1	14.5
CCOC(=O)C1CCN(c2c(NCCCN3CCCCC3)c(=O)c2=O)CC1	6.88
CCN(CC(=O)Nc1ccc2c(c1)OCCO2)C(=O)c1ccc(C(F)(F)F)cc1	-10.1
CC(=O)c1c(-c2ccc(Cl)cc2)c2ccccc2[nH]c1=O	11
O=C(COC(=O)c1ccc(S(=O)(=O)Nc2ccccc2)cc1)NC1CCCC1	5.84
Cc1ccccc1NC(=O)Nc1cccs1	13.3
O=C(NCc1ccccn1)c1cc(S(=O)(=O)N2CCN(c3ccccc3)CC2)ccc1Cl	-32.4
C=CCN1C(=O)/C(=C2/Sc3ccccc3N2C)SC1=Nc1ccccc1C	14.6
CSc1cccc(NS(=O)(=O)c2ccc3c(c2)oc(=O)n3C)c1	-4.71
CCOC(=O)CC(=O)CSc1nc2c(c(C)c1C#N)CCC2	-9.57
COc1ccc(NC(=O)c2ccccn2)cc1	11.2

Compound	hERG current change (%, negative = inhibition) at 10uM [%]
COc1ccc(N(C(=O)c2ccc(C)cc2)S(=O)(=O)c2cccs2)cc1	2.84
O=C(COC(=O)c1ccccc1NCCO)Nc1cccc(S(=O)(=O)NC2=NCCCCC2)c1	-9.92
Cc1ccc(N(CCC#N)C(=O)CSc2nc3ccccc3c(=O)[nH]2)cc1	-10.8
CCC(=O)Nc1cccc(NC(=S)NC(=O)Cc2ccccc2)c1	21.1
CCc1ccc(NC(=O)CSc2nnc(-c3ccccn3)n2C)cc1	-21
COC(=S)N/C(=N\S(=O)(=O)c1ccc(Cl)cc1)c1ccccc1	10.3
CN1CCN(c2cnn(-c3ccccc3)c(=O)c2Br)CC1	-0.56
COC(=O)Cc1ccc(NC(=S)NCCC(C)C)cc1	-3.53
CCOc1ccc(NC(=O)c2cc(SC)ccc2Cl)cc1	4.32
C=CCOc1ccc(/C=N/NC(=O)c2c(C)nc3ccc(Cl)cn23)cc1	16
CCC(C)c1ccc(NC(=O)N2CCOCC2)cc1 (stereo not drawn)	6.59
CCOC(=O)Cn1cc(/C=C(/C#N)C(=O)NC(C)C)c2ccccc21	8.22
Cc1noc(NS(=O)(=O)c2ccc(N/C=C\C(=O)c3ccc4c(c3)OCO4)cc2)c1C	4.93
COc1ccc(/C=C2\Sc3ccc(C(=O)N4CCCC4)cc3N(C)C2=O)cc1OC	11.5
Cc1cc(Cl)ccc1OCC(=O)OCC(=O)NC1CCCC1	17.1
CC(=O)c1cccc(NC(=O)N2CCCC2C(=O)Nc2cc(C)ccc2C)c1 (stereo not drawn)	-10.8
OCC1(C2=NOC(O)(C(F)(F)F)C2)CCCCC1 (stereo not drawn)	11.1
COc1ccc(NC(=O)c2sc(=S)[nH]c2N)cc1	21.1
Cc1nnc(N2CCCC(C(=O)NCc3ccc(OC(C)C)cc3)C2)c2nn(-c3ccccc3)c(C)c12 (stereo not drawn)	-9.05
COc1ccc(-c2noc(=O)n2CC(=O)N2CCC(Cc3ccccc3)CC2)cc1	-21
CC(=O)c1ccc(S(=O)(=O)N2CCC(Oc3ccc(-n4cnnn4)cc3)CC2)cc1	21.9
COc1ccc(C2(C(=O)Nc3ccc(C)c(C)c3)CCOCC2)cc1	6.97
COc1ccc(C2(C)NC(=O)N(CC(=O)Nc3ccc4[nH]c(=O)[nH]c4c3)C2=O)cc1 (stereo not drawn)	17.7

Compound	hERG current change (%, negative = inhibition) at 10uM [%]
O=c1[nH]cnc2c1C(c1ccc(Cl)cc1)c1c(nc[nH]c1=O)O2	1.91
Cc1c(NC(=O)C(C)OC(=O)COc2cccc3c2OC(C)(C)C3)c(=O)n(-c2ccccc2)n1C (stereo not drawn)	9.83
O=C(COC(=O)c1cc2c(s1)CCCC2)NCc1ccccc1Cl	1.44
Clc1ccc(Nc2nc3ccccc3n3nnnc23)cc1	7.76
O=C(NCCc1ccccc1)c1ccc2nc(N3CCOCC3)sc2c1	3.75
CSc1ccc(/C=C(/NC(=O)c2ccco2)C(=O)N2CCCCC2)cc1	-27.9
NC(=O)c1ccccc1NC(=O)COc1ccc(Cl)cc1	-0.944
Br.Nc1nc(-c2ccccc2)c(N=Nc2ccc(Cl)cc2)s1	7.86
CCOC(=O)C1CCN(C(=O)c2cccc(NC(=O)C(CC)CC)c2)CC1	-0.115
OC(CNCCC(c1ccccc1)c1ccccc1)COc1ccccc1 (stereo not drawn)	-71.4
C[N+]12CN3CN(CN(C3)C1)C2.[I-]	15.1
Cc1ccccc1OCC(=O)OC(C(=O)c1ccccc1)c1ccccc1 (stereo not drawn)	15.3
O=C1N2c3ccccc3CCc3cccc(c32)C1(O)C(F)(F)F (stereo not drawn)	-32.8
COc1ccc(CNC(=O)c2ccc(CNc3c(NC4CCCCC4)c(=O)c3=O)cc2)cc1	12.7
CCCCCCn1c(CN2CCN(C(=O)c3ccco3)CC2)nc2c1c(=O)n(C)c(=O)n2C	-65.8
COc1ccc(-c2cnc3ncnn3c2N)cc1	11.6
Cn1c(CCNS(=O)(=O)c2ccc(F)cc2)nnc1SCc1cccnc1	17.8
c1ccc2cc(Sc3ncnc4c3oc3ccccc34)ccc2c1	22
O=C(Nc1cccc(NC(=O)c2ccco2)c1)c1cccc(Br)c1	-30.6
O=C(Cc1ccc(F)cc1)NC(Cc1c[nH]c2ccccc12)C(=O)O (stereo not drawn)	24.7
Cc1cccc(NC(=O)CN2CCN(C(=O)c3cccc(-n4cnnn4)c3)CC2)c1C	-41.5
CCOc1cc(NC(=O)c2cccs2)c(OCC)cc1NC(=O)c1cccnc1	21.1
CNC(=O)c1ccc(-c2ccc(F)cc2)s1	4.34

Compound	hERG current change (%, negative = inhibition) at 10uM [%]
NC(=O)c1ccc(-c2ccc(Br)cc2)o1	0.329
C/C(O)=C/c1nc2ccccc2[nH]c1=O	-5.26
CSc1ccccc1C(=O)N1CCOCC1	20
CN(C)c1nc(N)nc(CSc2nnnn2-c2ccccc2)n1	-6.81
CN(Cc1ccccc1)C(=O)COC(=O)c1ccc2ccccc2n1	-4.26
CCCCCC(=O)N1CCN(CCN=CC2=C(O)CC(c3ccco3)CC2=O)CC1 (stereo not drawn)	-76.2
Cc1ccc(C)c(NC(=O)c2cc(-c3cc(C)ccc3O)n[nH]2)c1	20.9
CCC(C)c1ccccc1NC(=O)C(C)N(C)Cc1cccc(OC)c1.O=C(O)C(=O)O (stereo not drawn)	11.8
COc1ccc(Nc2c3c(c(C#N)c4nc5ccccc5n24)CCC3)cc1	2.54
C/C(=C1/SC(N2CCOCC2)=NC1=O)c1ccc(Cl)cc1	5.5
COc1ccc(C(=O)NNC(=S)NC(=O)c2cccs2)cc1	10.8
CCc1nnc(NC(=O)CSc2nc3cc4c(cc3cc2C)OCCO4)s1	4.52
COc1ccc(Nc2nc(-c3cccs3)cs2)cc1	21.2
Cc1oc(-c2ccccc2)nc1CN1C(=O)CN=C(c2ccccc2)c2ccccc21	-32.8
OC1CCN(Cc2nc(Cc3ccccc3Cl)no2)CC1	13.3
CCN(Cc1ccccc1)C(c1cccc(C#N)c1)c1nnnn1C(C)(C)C (stereo not drawn)	-6.6
O=C(CN1CCc2cc3c(cc2C1)OCCCO3)Nc1cccc(Br)c1	8.67
O=C(Cn1c(=O)oc2cc(S(=O)(=O)NCc3ccccc3)ccc21)N1CCCC1	15.2
CN(C)c1nc(C(N)=O)nc(N2CCOCC2)n1	2.5
O=C(Cc1cc(=O)[nH][nH]1)N/N=C/c1c(F)cccc1Cl	12.1
COc1ccc(C)cc1S(=O)(=O)N(CC(=O)Nc1cccc([N+](=O)[O-])c1)c1cc(C)cc(C)c1	11.1
